From PubChem BioAssay AID1345082 (National Center for Advancing Translational Sciences (NCATS), 2018)
Screen size: about 94,000 compounds; about 4,000 (4.3%) were called active. Inconclusive results, whose numbers are uncertain, are shown with a selection of clear calls. The call rests on the fitted dose curve; in most records, active means well fitted inhibition curve with a large enough effect; inconclusive means small, poorly fitted or top-dose-only effect; inactive means no such curve, though single readings can be large or run the other way. Where the call is inconclusive, the potency comes from a doubtful curve fit.

Experiment: Cytotoxic Profiling in NIH 3T3 Cell Line of Diverse Libraries Using Quantitative High-Throughput Screening; further: nearly all actives have a fitted effect of over 55% in size
Conditions: NIH 3T3 viability, CellTiter-Glo ATP luminescence, 48-72 h; series mostly up to 96.7 µM
Summary of the method: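 Cytotoxicity is measured as loss of cellular ATP: NIH 3T3 cells (400/well) are exposed to compound for 48 or 72 hr at 37 °C, then CellTiter-Glo luminescence is imaged after 10 min at room temperature.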
Potency means the concentration at half of the fitted maximal effect; tags describe the fitted curve by direction and shape.

**Q.** Which Potency does the source give for `CSc1ccc(CNC(=O)c2nnn3c2COC(c2ccc(F)cc2)C3)cc1` (stereo unspecified) here?
**A.** inactive

**Q.** Which Potency does the source give for `O=C(c1ccc2c(c1)N(C(=O)C1CC1)CC2)N1CCCC1` here?
**A.** inconclusive: 50.1 µM [inhibitor, partial curve, poor fit]

**Q.** With `CCC(C)(C)NC(=O)CC1Sc2ncccc2N(CC(C)C)C1=O` (stereo unspecified) as the compound, how does the Potency read?
**A.** inactive

**Q.** For `Cc1ccc(C(C)NC(=O)CN2C(=O)C3(CCNCC3)Nc3ccccc32)cc1` (stereo unspecified), which Potency is on record?
**A.** inactive

**Q.** With `CC(=O)N1CCCC1C(=O)N1CCC(N2Cc3ccccc3C2=O)CC1` (stereo unspecified) as the compound, how does the Potency read?
**A.** inactive

**Q.** Which Potency does the source give for `CCCCNC(=O)CC(c1cccc(OC)c1)c1c[nH]c2ccccc12` (stereo unspecified) here?
**A.** inconclusive: 35.5 µM [inhibitor, partial curve]

**Q.** Which Potency does the source give for `O=C(Cc1ccccc1)NC1CCN(c2ccnc3ccnn23)C1` (stereo unspecified) here?
**A.** inconclusive: 50.1 µM [inhibitor, partial curve, poor fit]

**Q.** Which Potency does the source give for `COc1ccc(-c2ccc3nc(-c4ccc(SC)cc4)oc3c2)c(OC)c1OC` here?
**A.** inconclusive: 10 µM [inhibitor, full curve]

**Q.** With `COc1ccc(OCC2(C)COc3ccc(C(=O)NCc4cccnc4)cc3N2)cc1` (stereo unspecified) as the compound, how does the Potency read?
**A.** inconclusive: 89.1 µM [inhibitor, partial curve]

**Q.** Which Potency does the source give for `CCN1c2cc(C(=O)NCc3ccc(F)cc3Cl)ccc2C(=O)N2CCCCC21` (stereo unspecified) here?
**A.** inconclusive: 50.1 µM [inhibitor, partial curve, poor fit]

**Q.** For `COCCn1ncc(N2CCC(C(=O)Nc3ccc(-c4nc5c(C)cccc5[nH]4)cc3)C2)cc1=O` (stereo unspecified), which Potency is on record?
**A.** inactive

**Q.** Which Potency does the source give for `Cc1cccc(NC(=O)Cn2c(N3CCCCC3)nc(C)c(C)c2=O)c1` here?
**A.** inconclusive: 44.7 µM [inhibitor, partial curve, poor fit]

**Q.** With `CCCNC(=O)N(C1CCOCC1)C1CCN(C(=O)c2ccoc2)CC1` as the compound, how does the Potency read?
**A.** inactive

**Q.** For `CC(=O)Nc1ccc(NC(=O)CN2C(=O)NC3(CCC(C)CC3)C2=O)cc1` (stereo unspecified), which Potency is on record?
**A.** inactive

**Q.** For `CN1c2cc(C(=O)NC3CCCCC3)ccc2C(=O)N2CCCC21` (stereo unspecified), which Potency is on record?
**A.** inconclusive: 56.2 µM [inhibitor, partial curve, poor fit]

**Q.** Which Potency does the source give for `CO[C@@H]1C[C@H]2C(=O)Nc3ccc(-c4cccc(C(F)(F)F)c4)cc3C(=O)N2C1` here?
**A.** inconclusive: 100 µM [inhibitor, partial curve]

**Q.** Which Potency does the source give for `O=C(CC1CCOC2(CCN(Cc3cccc(F)c3)CC2)C1)NC1CC1` (stereo unspecified) here?
**A.** inactive

**Q.** For `COc1cccc(-c2ccc(CN3CCCC(NC(=O)c4ccccc4Cl)C3)cc2)c1` (stereo unspecified), which Potency is on record?
**A.** active: 28.2 µM

**Q.** For `O=C(Nc1ccnn1C1CCN(Cc2ccc(-c3ccccc3)cc2)CC1)C1CC1`, which Potency is on record?
**A.** active: 35.5 µM

**Q.** Which Potency does the source give for `Cc1nn2c(c1-c1cccnc1N1CCOCC1)N(C(=O)Cc1ccc(Cl)cc1)CCC2` here?
**A.** inconclusive: 50.1 µM [inhibitor, partial curve, poor fit]

**Q.** Which Potency does the source give for `Cc1cccc2c1nc1n2[C@@H](CNCc2ccccc2)COC1` here?
**A.** inconclusive: 20 µM [inhibitor, full curve, poor fit]

**Q.** With `O=C(c1ccccc1)N1CCC2(CC1)Cc1ccccc1NC2=O` as the compound, how does the Potency read?
**A.** inconclusive: 56.2 µM [inhibitor, partial curve, poor fit]

**Q.** Which Potency does the source give for `CCCNC(=O)CN1C(=O)NC(c2ccccc2OC)C2=C1COC2=O` (stereo unspecified) here?
**A.** inactive

**Q.** Which Potency does the source give for `COc1cccc(NC(=O)Cc2c[nH]c3ncc(-c4ccccc4C)cc23)c1` here?
**A.** inconclusive: 56.2 µM [inhibitor, partial curve, poor fit]

**Q.** With `COCCOc1cccc(Cn2cnc(-c3ccccc3)c2-c2cnc[nH]2)c1` as the compound, how does the Potency read?
**A.** inconclusive: 15.8 µM [inhibitor, partial curve, poor fit]

**Q.** For `CCC(C)(C)C(=O)NC1CCN(c2cnn(CC3CC3)c(=O)c2)CC1`, which Potency is on record?
**A.** inactive

**Q.** For `CCOC(=O)C[C@@H]1C[C@@H](C(C)C)[C@H](CNC(=O)c2ccc(F)cc2)C=C1C`, which Potency is on record?
**A.** inconclusive: 28.2 µM [inhibitor, full curve]

**Q.** With `CN(CC1CCOCC1)C(=O)Cc1ccsc1` as the compound, how does the Potency read?
**A.** inactive

**Q.** For `FC(F)(F)c1cccc(-c2nccn3c(C4CN(Cc5ccc6cn[nH]c6c5)C4)ncc23)c1`, which Potency is on record?
**A.** active: 39.8 µM

**Q.** Which Potency does the source give for `COc1ccc(CN2CC3(CCN(C(=O)Cc4cccc(OC)c4)CC3)C2=O)cc1` here?
**A.** inconclusive: 44.7 µM [inhibitor, partial curve, poor fit]

**Q.** With `Cc1cccc(C(=O)NC2CCCN(Cc3ccc(-c4cc(C)cc(C)c4)cc3)C2)c1` (stereo unspecified) as the compound, how does the Potency read?
**A.** inconclusive: 44.7 µM [inhibitor, partial curve, poor fit]

**Q.** Which Potency does the source give for `COc1ccc(N2CC(C(=O)NCc3cccs3)NC2=O)cc1` (stereo unspecified) here?
**A.** inactive

**Q.** Which Potency does the source give for `CCc1ccc(N2CC(c3noc(-c4ccc(OC)cc4)n3)CC2=O)cc1` (stereo unspecified) here?
**A.** inconclusive: 50.1 µM [inhibitor, partial curve, poor fit]

**Q.** For `COc1cc(F)ccc1-c1cc2c(ccn2C)c(C(=O)NCCc2cnc[nH]2)n1`, which Potency is on record?
**A.** inconclusive: 79.4 µM [inhibitor, partial curve, poor fit]

**Q.** With `O[C@@H]1C[C@@H](c2nc(-c3ccc(F)cc3)no2)N(Cc2ccc(F)cc2)C1` as the compound, how does the Potency read?
**A.** inconclusive: 112 µM [inhibitor, partial curve, poor fit]

**Q.** With `CCC1CN(CCNC(=O)Cc2c(F)cc(F)cc2F)Cc2cc(OC)ccc2O1` (stereo unspecified) as the compound, how does the Potency read?
**A.** inconclusive: 50.1 µM [inhibitor, single point]

**Q.** For `CCn1ncc(N2CCC(NC(=O)COc3ccc(F)cc3)CC2)cc1=O`, which Potency is on record?
**A.** inconclusive: 44.7 µM [inhibitor, partial curve, poor fit]

**Q.** For `O=C(c1cccs1)N1CCC(c2n[nH]c(=O)n2Cc2ccc(F)cc2)CC1`, which Potency is on record?
**A.** inconclusive: 70.8 µM [inhibitor, single point]

**Q.** For `COc1ccccc1Nc1ccnc(N2CCN([S+](=O)([O-])c3cccc(C(F)(F)F)c3)CC2)n1`, which Potency is on record?
**A.** inconclusive: 31.6 µM [inhibitor, full curve]

**Q.** Which Potency does the source give for `O=C1CC2(CCN(CC3CCNC3)C2)Nc2ccccc2N1` (stereo unspecified) here?
**A.** inactive

**Q.** With `Cc1c(CN(C)Cc2cccc(C(=O)Nc3ccc(C#N)cc3)c2)cnn1C` as the compound, how does the Potency read?
**A.** inactive

**Q.** For `COc1ccc(C(=O)N2CCN(CC3CC3)[C@@H]3CS(=O)(=O)C[C@@H]32)c(C)c1`, which Potency is on record?
**A.** inactive

**Q.** With `CN(C(=O)c1ccccc1)C1CCCc2ccccc21` (stereo unspecified) as the compound, how does the Potency read?
**A.** inconclusive: 56.2 µM [inhibitor, partial curve, poor fit]

**Q.** With `CN(C)c1ccc(C(=O)NC2CCN(c3cc(-c4ccc(Cl)cc4)[nH]n3)C2)cc1` (stereo unspecified) as the compound, how does the Potency read?
**A.** inconclusive: 44.7 µM [inhibitor, partial curve, poor fit]

**Q.** With `O=C(NCCN1CCOCC1)c1ccc2oc(-c3ccncc3)nc2c1` as the compound, how does the Potency read?
**A.** inactive

**Q.** Which Potency does the source give for `CCN1C(=O)COC[C@@H]1C(O)c1ccc(NC(=O)Cc2ccc(OC)cc2)cc1` (stereo partly specified) here?
**A.** inactive

**Q.** Which Potency does the source give for `CCc1ccc(S(=O)(=O)N2CC(COC)C3(CCNCC3)C2)cc1` (stereo unspecified) here?
**A.** inactive

**Q.** For `COc1ccc2[nH]c3c(c2c1)CCN(C)C31CCN(C(=O)c2cccn2C)CC1`, which Potency is on record?
**A.** inactive

**Q.** Which Potency does the source give for `Cc1ccc2c(C)c(C(=O)N3CCCC3c3nc(C(C)C)no3)oc2c1C` (stereo unspecified) here?
**A.** inconclusive: 56.2 µM [inhibitor, partial curve, poor fit]

**Q.** With `COC(=O)CNC(=O)C1CCN(c2nccc(Nc3ccc(C)cc3)n2)CC1` as the compound, how does the Potency read?
**A.** inactive

**Q.** With `COc1ccc(C(C)NC(=O)c2cc3n(n2)CC(c2ccc(Cl)cc2)OC3)cc1OC` (stereo unspecified) as the compound, how does the Potency read?
**A.** inconclusive: 50.1 µM [inhibitor, partial curve, poor fit]

**Q.** For `COc1ccc(CNC(=O)c2cccc(-c3ccc(OC)nn3)c2)cc1`, which Potency is on record?
**A.** inconclusive: 44.7 µM [inhibitor, partial curve, poor fit]

**Q.** For `COCCN1Cc2nc(-c3ccc(OC)c(F)c3)ccc2OCC1=O`, which Potency is on record?
**A.** inconclusive: 79.4 µM [inhibitor, partial curve, poor fit]

**Q.** With `COc1cccc(-c2noc(CC3CCN(C(=O)c4ccc(C)cc4)CC3)n2)c1` as the compound, how does the Potency read?
**A.** inconclusive: 50.1 µM [inhibitor, partial curve, poor fit]

**Q.** Which Potency does the source give for `O=C(NCc1ccco1)C1CC(c2ccccc2)CN(C(=O)Nc2ccc(Cl)cc2)C1` (stereo unspecified) here?
**A.** inconclusive: 44.7 µM [inhibitor, partial curve, poor fit]

**Q.** For `CC(C)OC(=O)N1CCC(Oc2ccc3c(cnn3CCC(=O)O)c2)CC1`, which Potency is on record?
**A.** inconclusive: 25.1 µM [inhibitor, full curve, poor fit]

**Q.** For `Cc1ccc(C(C)NC(=O)c2cc(COc3ccccc3)[nH]n2)c(C)c1` (stereo unspecified), which Potency is on record?
**A.** inconclusive: 50.1 µM [inhibitor, partial curve, poor fit]

**Q.** For `CCc1ccc(NC(=O)C2CCN(c3cc(C(F)(F)F)ncn3)CC2)cc1`, which Potency is on record?
**A.** inconclusive: 35.5 µM [inhibitor, partial curve, poor fit]

**Q.** For `COC(=O)CNC(=O)c1cc(-c2cccc(F)c2)nc2c1cnn2C`, which Potency is on record?
**A.** inconclusive: 89.1 µM [inhibitor, partial curve, poor fit]

**Q.** For `CC(C)c1ccc(S(=O)(=O)N2CCCC2Cc2noc(Cc3ccccc3)n2)cc1` (stereo unspecified), which Potency is on record?
**A.** inconclusive: 28.2 µM [inhibitor, full curve, poor fit]

**Q.** For `CN1CCC2(CCC1=O)CN(C(=O)c1ccc(Cn3cccn3)o1)CCN2C` (stereo unspecified), which Potency is on record?
**A.** inactive

**Q.** For `COc1ccc2[nH]c(=O)c(CCC(=O)N(C)CCc3ccccc3)cc2c1`, which Potency is on record?
**A.** inconclusive: 50.1 µM [inhibitor, partial curve, poor fit]

**Q.** For `COc1ccc(C(=O)NC2CCN(c3cc(-c4ccc(F)cc4)[nH]n3)CC2)c(C)c1`, which Potency is on record?
**A.** inconclusive: 50.1 µM [inhibitor, partial curve, poor fit]

**Q.** Which Potency does the source give for `COc1ccc(-n2c(=O)c3c(n2Cc2ccccc2)CN(C(=O)C2CCCO2)CC3)cc1` (stereo unspecified) here?
**A.** inconclusive: 50.1 µM [inhibitor, partial curve, poor fit]

**Q.** With `COCC(=O)N(C)C1CCOc2ccccc21` (stereo unspecified) as the compound, how does the Potency read?
**A.** inactive

**Q.** For `NC(=O)c1cccc(-c2ncc3c(n2)OCCN(Cc2ccccc2)C3=O)c1`, which Potency is on record?
**A.** inconclusive: 63.1 µM [inhibitor, partial curve, poor fit]
